Among the data in the supplement of paper PMC9446081 are relative growth values, retold here.

Out of some 39,000 compounds screened, about 220 (0.56%) showed activity. Some of the results follow.
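Also: static incubation at 37 °C against the wild-type strain, values averaged over two biological replicates.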

This assay has as its system Escherichia coli K-12 BW25113. Description: relative growth (OD600 normalised to plate interquartile mean) (fraction); higher = less growth inhibition, active = 0.2 or less. The settings on record: 50 µM; LB; incubation time: overnight (16-24 h).
Regarding `C[C@H]1CN([C@@H](C)CO)C(=O)Cc2cc(NC(=O)NC3CCCCC3)ccc2O[C@H]1CN(C)Cc1ccc(C(=O)Nc2ccccc2N)cc1`, the relative growth is inactive: 0.993.

Consider `COc1ccc(CNC(=O)C[C@H]2CC[C@H]3[C@H](COc4ccc(NC(=O)C5CC5)cc4C(=O)N3C)O2)cc1`, for which the relative growth was inactive: 0.985.

As for `COc1ccc(S(=O)(=O)N(C)C[C@H]2OCCCC[C@@H](C)Oc3ccc(NS(C)(=O)=O)cc3C(=O)N([C@H](C)CO)C[C@@H]2C)cc1`, the relative growth was inactive: 1.04.

Take `COc1ccc(NC(=O)Nc2ccc3c(c2)C(=O)N([C@H](C)CO)C[C@@H](C)[C@@H](CN(C)Cc2ccc(C(F)(F)F)cc2)OCCCC[C@H](C)O3)cc1`: the relative growth was inactive: 1.04.

Regarding `COc1ccc(NC(=O)Nc2ccc3c(c2)C(=O)N([C@@H](C)CO)C[C@@H](C)[C@H](CN(C)Cc2ccc(Cl)c(Cl)c2)OCCCC[C@@H](C)O3)cc1`, the relative growth is inactive: 1.02.

For the compound `CC[C@@H](C)NCc1sccc1C`, the relative growth was inactive: 1.05.

Regarding `Cc1ccc(S(=O)(=O)N(C)C[C@H]2OCCCC[C@@H](C)Oc3ccc(NC(=O)NC4CCCCC4)cc3C(=O)N([C@H](C)CO)C[C@@H]2C)cc1`, the relative growth was inactive: 0.994.

Turning to `O=C(CCC1CCCCC1)NCCC12CC3CC(CC(C3)C1)C2`, the relative growth was inactive: 1.03.

For the compound `CC(C)CC#Cc1ccc2c(c1)O[C@@H](CN(C)C(=O)Cc1ccccn1)[C@H](C)CN([C@@H](C)CO)S2(=O)=O`, the relative growth is inactive: 0.99.

In the case of `COc1ccc(S(=O)(=O)N(C)C[C@H]2Oc3ncc(-c4ccncc4)cc3C(=O)N([C@H](C)CO)C[C@H]2C)cc1`, the relative growth was inactive: 0.987.

As for `C[C@@H]1CN([C@@H](C)CO)S(=O)(=O)c2ccc(C#C[C@@H](C)O)cc2O[C@@H]1CN(C)C(=O)c1ccncc1`, the relative growth was inactive: 1.

As for `O=C(NCC(F)(F)F)[C@@H]1c2ccccc2C(=O)N(CC23CC4CC(CC(C4)C2)C3)[C@H]1c1ccc(CO)cc1`, the relative growth is inactive: 0.977.

As to `C[C@H]1CN([C@@H](C)CO)C(=O)c2cc(-c3cccnc3)cnc2O[C@@H]1CN(C)Cc1ccc(-c2ccccc2)cc1`, the relative growth was inactive: 1.

Take `C[C@H](CO)N1C[C@H](C)[C@@H](CN(C)C(=O)Cc2ccncc2)Oc2cc(C#CC3(O)CCCC3)ccc2S1(=O)=O`: the relative growth is inactive: 0.994.

`C[C@@H]1CN([C@@H](C)CO)C(=O)CCCn2cc(nn2)CO[C@H]1CN(C)S(=O)(=O)c1ccc(Oc2ccccc2)nc1`: the relative growth is inactive: 1.04.

Take `CC(C)N1CCOC[C@@]2(C1)CN(S(C)(=O)=O)CCO2`: the relative growth was inactive: 1.01.

Regarding `Cc1noc(C)c1S(=O)(=O)Nc1ccc2c(c1)CC(=O)N([C@@H](C)CO)C[C@H](C)[C@@H](CN(C)Cc1ccc(C(=O)O)cc1)O2`, the relative growth was inactive: 1.01.

For the compound `CC1(C)C2CCC1(C)C(O)C2` (stereo not drawn), the relative growth is inactive: 0.908.

With `N[C@H](C(=O)O)c1ccc(C(=O)O)c(C(=O)O)c1`, the relative growth was inactive: 1.

Regarding `O=C(Nc1cccc2cccnc12)[C@@H]1[C@H](c2ccc(Br)cc2)CC(=O)N1C(=O)OCc1ccccc1`, the relative growth was inactive: 1.02.

For the compound `O=C(C[C@H]1C[C@H]2c3cc(NC(=O)Nc4ccc(C(F)(F)F)cc4)ccc3O[C@H]2[C@H](CO)O1)NC1CCCCC1`, the relative growth is inactive: 1.01.

As for `O=C(Nc1nc(OCCN2CCCC2=O)cnc1-c1cc(Cl)cc(Cl)c1)c1cc2ccccc2s1`, the relative growth is inactive: 1.01.

`Cc1ccc(CNS(=O)(=O)N(C)C)cc1`: the relative growth was inactive: 0.983.

With `CC(C)CC#Cc1ccc2c(c1)O[C@H](CN(C)C(=O)C1CCOCC1)[C@@H](C)CN([C@H](C)CO)S2(=O)=O`, the relative growth is inactive: 0.959.

Take `CN(C)CCOC(=O)C(c1ccccc1)C1(O)CCCC1.Cl` (stereo not drawn): the relative growth is inactive: 1.06.

Regarding `COCC(=O)Nc1c(I)c(C(=O)NC[C@@H](O)CO)c(I)c(C(=O)N(C)C[C@@H](O)CO)c1I`, the relative growth is inactive: 0.976.

On to `CC(C)(C)CC(=O)N1C[C@@H]2c3nc(N4CCOCC4)ncc3CS(=O)(=O)[C@H]2C1`, for which the relative growth was inactive: 0.995.

`Nc1ccn([C@@H]2O[C@H](CO)[C@@H](O)[C@H]2O)c(=S)n1`: the relative growth is inactive: 0.94.

`NCC[C@@H]1CC[C@H](NC(=O)c2ccccc2F)[C@H](CO)O1`: the relative growth is inactive: 1.01.

For the compound `O=S(=O)(NCC[C@@H]1CC[C@@H](NS(=O)(=O)c2ccccc2Cl)[C@@H](CO)O1)c1ccc(Cl)cc1`, the relative growth was inactive: 0.969.

As for `C[C@H](CO)N1C[C@H](C)[C@@H](CN(C)C(=O)Nc2ccc(C(F)(F)F)cc2)Oc2ccc(NC(=O)CCC(F)(F)F)cc2CC1=O`, the relative growth was inactive: 0.941.

For the compound `C[C@H](CO)N1C[C@H](C)[C@@H](CN(C)C(=O)CCN2CCCCC2)Oc2ncc(C#Cc3ccccn3)cc2C1=O`, the relative growth is inactive: 1.02.

Turning to `CCc1nc2ccc(C(=O)Nc3cc(-c4ccccc4)ccc3OC)cn2c1N(CCN(C)C)CC1CC1`, the relative growth is inactive: 0.974.

Turning to `C[C@@H]1CCCCO[C@H](CN(C)S(=O)(=O)c2ccccc2)[C@@H](C)CN([C@@H](C)CO)C(=O)c2cc(NC(=O)Nc3cccc4ccccc34)ccc2O1`, the relative growth was inactive: 1.05.

Turning to `COc1ccc(S(=O)(=O)Nc2ccc3c(c2)C(=O)N([C@@H](C)CO)C[C@H](C)[C@H](CN(C)S(=O)(=O)c2ccc(OC)cc2)O3)cc1`, the relative growth was inactive: 1.01.

Consider `COCC(=O)N1C[C@H](C)[C@H](OC)CN(C)C(=O)c2cc(NC(=O)c3ccc(OC)cc3)ccc2OC[C@H]1C`, for which the relative growth was inactive: 1.02.

Turning to `CN1C(=O)[C@@H]2CN(c3ncccn3)C[C@@H]2C12CCN(S(C)(=O)=O)CC2`, the relative growth was inactive: 0.946.

In the case of `C[C@@H]1CN([C@H](C)CO)C(=O)Cc2cc(NC(=O)CCC(F)(F)F)ccc2O[C@H]1CN(C)S(C)(=O)=O`, the relative growth was inactive: 0.993.

Turning to `CC(C)CC#Cc1ccc2c(c1)O[C@@H](CN(C)CC1CCOCC1)[C@@H](C)CN([C@H](C)CO)S2(=O)=O`, the relative growth was inactive: 1.03.

`C[C@H](CO)N1C[C@H](C)[C@H](CN(C)C(=O)Nc2ccc3c(c2)OCO3)Oc2ncc(-c3cncnc3)cc2C1=O`: the relative growth was inactive: 1.02.

Consider `Cc1cc(C(=O)Nc2cccc3c2O[C@@H](CN(C)S(=O)(=O)c2ccccc2)[C@H](C)CN([C@@H](C)CO)C3=O)n(C)n1`, for which the relative growth was inactive: 1.01.

In the case of `C[C@@H]1CN([C@H](C)CO)C(=O)c2cc(NC(=O)CCCCCC(=O)Nc3ccccc3N)ccc2O[C@@H]1CN(C)S(=O)(=O)c1cn(C)cn1`, the relative growth is inactive: 0.997.

On to `CC1(C)C(=O)NCCN1C(=O)C1CC1`, for which the relative growth is inactive: 1.

With `O[C@H]1[C@H](O)[C@@H](O)[C@H](O)[C@@H](O)[C@H]1O`, the relative growth is inactive: 1.01.

With `C[C@H](CO)N1C[C@H](C)[C@@H](CN(C)C(=O)Nc2cccc3ccccc23)Oc2ccc(NS(=O)(=O)c3ccc(F)cc3)cc2C1=O`, the relative growth was inactive: 1.01.

As for `CN1C(=O)c2cc(NC(=O)C3CCC3)ccc2OC[C@H]2O[C@H](CC(=O)NCCc3ccncc3)CC[C@@H]21`, the relative growth is inactive: 0.978.

For `C[C@H]1CN([C@@H](C)CO)C(=O)Cc2cc(NC(=O)CCCCCC(=O)Nc3ccccc3N)ccc2O[C@H]1CN(C)Cc1ccc(C(F)(F)F)cc1`, the relative growth is inactive: 1.02.

For the compound `C[C@@H]1CN([C@@H](C)CO)C(=O)c2cc(NS(=O)(=O)c3cn(C)cn3)ccc2O[C@@H](C)CCCCO[C@H]1CN(C)C(=O)CCCN(C)C`, the relative growth is inactive: 0.97.

Turning to `Nc1ccc(S(=O)(=O)[N-]c2cnc3ccccc3n2)cc1.[Na+]`, the relative growth was inactive: 0.994.

In the case of `C[C@H]1CN([C@@H](C)CO)C(=O)c2cc(NC(=O)CCN3CCOCC3)ccc2O[C@@H]1CN(C)Cc1ccc(C(=O)O)cc1`, the relative growth was inactive: 1.

For the compound `C#CCN([C@H](/C=C/C1CC1)[C@@H](O)Cc1ccccc1)[C@@H](Cc1ccc(-n2cc(COc3ccccc3/C=C(C)/C=C/C(=O)NO)nn2)cc1)C(=O)OC`, the relative growth is inactive: 0.983.

In the case of `CC(=O)Nc1cccc(S(N)(=O)=O)c1`, the relative growth was inactive: 0.995.

As for `Cc1ccc(S(=O)(=O)N(C)C[C@H]2Oc3ccc(NC(=O)Nc4ccc(C(F)(F)F)cc4)cc3C(=O)N([C@@H](C)CO)C[C@H]2C)cc1`, the relative growth was inactive: 1.01.

Consider `C[C@@H]1O[C@@H](O[C@@H]2[C@@H](O)[C@H](OCCc3ccc(O)c(O)c3)O[C@H](CO)[C@H]2OC(=O)/C=C/c2ccc(O)c(O)c2)[C@H](O)[C@H](O)[C@H]1O`, for which the relative growth is inactive: 0.993.

For `Cc1ccc(S(=O)(=O)N2C[C@H](O)COC[C@@H]3O[C@@H](CC(=O)NCc4ccc5c(c4)OCO5)CC[C@H]32)cc1`, the relative growth is inactive: 1.03.

For the compound `CC(C)NC(=O)Nc1ccc2c(c1)C(=O)N([C@@H](C)CO)C[C@@H](C)[C@@H](CN(C)CC1CCCCC1)OCCCC[C@@H](C)O2`, the relative growth is inactive: 0.997.

Turning to `C[C@H](CO)N1C[C@H](C)[C@@H](CN(C)S(=O)(=O)c2ccccc2)Oc2ccc(NC(=O)c3ccncc3)cc2C1=O`, the relative growth is inactive: 1.01.

With `COc1ccc(S(=O)(=O)Nc2cccc3c2O[C@@H](CN(C)S(=O)(=O)c2ccc(OC)cc2)[C@@H](C)CN([C@@H](C)CO)C3=O)cc1`, the relative growth was inactive: 1.01.

Take `COc1ccc(NC(=O)N(C)C[C@@H]2Oc3ccc(NC(=O)Nc4ccc(C(F)(F)F)cc4)cc3C(=O)N([C@H](C)CO)C[C@@H]2C)cc1`: the relative growth was inactive: 0.981.

As to `COc1cc2c(cc1OC)C1Cc3ccc(OC)c(OC)c3CN1CC2` (stereo not drawn), the relative growth is inactive: 1.12.

Regarding `C[C@H](CO)N1C[C@H](C)[C@H](CN(C)S(=O)(=O)c2ccc(F)cc2)OCCCC[C@H](C)Oc2ccc(NC(=O)Nc3ccc4c(c3)OCO4)cc2C1=O`, the relative growth was inactive: 1.

Turning to `C[C@H](O)C#Cc1ccc2c(c1)O[C@@H](CN(C)C(=O)C1CCCCC1)[C@@H](C)CN([C@@H](C)CO)S2(=O)=O`, the relative growth was inactive: 1.01.

`CC(=O)N1CC2(CCN(CC(=O)N3CCOCC3)CC2)C[C@@H]1C(=O)O`: the relative growth is inactive: 1.02.
